# Measurements taken from PMC4336329 (PLoS ONE, 2015).
# In all, about 310,000 compounds went through this assay and about 2,200 (0.71%) showed an effect of 50% or more. Effects have a minus sign here. This is one part of the list.
# Target: human ether-à-go-go-related gene (hERG) potassium channel (human, UniProt Q12809)
# Assay: primary screen, population patch clamp on CHO cells stably expressing hERG
# Sequence of human ether-à-go-go-related gene (hERG) potassium channel (Q12809 whole entry, looked up): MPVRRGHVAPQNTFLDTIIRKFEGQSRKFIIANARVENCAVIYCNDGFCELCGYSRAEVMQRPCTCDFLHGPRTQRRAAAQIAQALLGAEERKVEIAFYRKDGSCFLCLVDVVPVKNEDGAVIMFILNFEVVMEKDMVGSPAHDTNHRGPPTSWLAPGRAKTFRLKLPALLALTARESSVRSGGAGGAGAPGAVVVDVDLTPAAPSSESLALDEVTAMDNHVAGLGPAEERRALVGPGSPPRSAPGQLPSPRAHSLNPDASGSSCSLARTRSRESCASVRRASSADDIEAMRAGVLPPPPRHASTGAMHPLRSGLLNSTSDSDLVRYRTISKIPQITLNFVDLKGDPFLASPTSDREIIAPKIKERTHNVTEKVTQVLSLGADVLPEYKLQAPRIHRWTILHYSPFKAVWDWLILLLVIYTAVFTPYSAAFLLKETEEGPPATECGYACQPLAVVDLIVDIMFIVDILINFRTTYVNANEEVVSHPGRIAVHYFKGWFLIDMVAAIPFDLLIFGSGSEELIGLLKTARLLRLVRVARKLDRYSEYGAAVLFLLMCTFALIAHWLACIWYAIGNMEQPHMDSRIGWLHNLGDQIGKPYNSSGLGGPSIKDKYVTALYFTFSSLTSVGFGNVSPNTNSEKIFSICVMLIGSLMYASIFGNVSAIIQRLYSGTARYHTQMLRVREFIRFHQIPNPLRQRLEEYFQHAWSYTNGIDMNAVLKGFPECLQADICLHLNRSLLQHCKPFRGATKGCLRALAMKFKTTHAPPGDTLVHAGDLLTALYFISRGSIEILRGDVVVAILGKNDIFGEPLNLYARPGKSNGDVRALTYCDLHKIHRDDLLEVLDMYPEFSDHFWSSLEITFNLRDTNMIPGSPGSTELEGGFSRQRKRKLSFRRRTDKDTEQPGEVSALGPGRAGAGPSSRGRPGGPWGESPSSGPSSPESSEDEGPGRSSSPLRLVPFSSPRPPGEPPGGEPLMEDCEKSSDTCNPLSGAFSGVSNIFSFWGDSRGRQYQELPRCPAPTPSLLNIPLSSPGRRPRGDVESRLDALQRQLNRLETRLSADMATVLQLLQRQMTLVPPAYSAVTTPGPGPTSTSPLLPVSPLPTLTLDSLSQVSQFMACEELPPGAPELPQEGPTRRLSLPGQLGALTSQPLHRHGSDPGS
row,SMILES,"hERG current change (%, negative = inhibition) at 1uM"
1,CCCCCCCCc1nnc(N)s1,-0.427%
2,CCOc1cc(/C=C/c2ccc3cccc([N+](=O)[O-])c3n2)cc(Cl)c1O,12.4%
3,CC(=O)C1CCC2C3CCC4=CC(=O)CC[C@]4(C)[C@@]3(F)C(O)C[C@]12C (some centres unmarked),15.9%
4,NS(=O)(=O)c1cccnc1Nc1cccc(C(F)(F)F)c1,5.76%
5,O=C(Nc1cc(Cl)ccc1Cl)c1ccc(-c2ccccc2)cc1,1.57%
6,COc1ccc(C(C)C)cc1S(=O)(=O)N1CCC(C(=O)N2CCN(C)CC2)CC1,14.8%
7,CN(C)c1nc(NCc2ccccc2)nc(N/N=C/c2ccccc2F)n1.Cl,19.3%
8,CSc1nnc(CCCCCCCCc2nnc(SC)o2)o1,11.1%
9,CC12CC3(C)CC(C)(C1)CC(C(=O)NCc1ccccn1)(C2)C3,6.5%
10,COc1cccc(CNC(=O)CCC2CCCN(c3cc(C)nc(N4CCCC4)n3)C2)c1 (centres unmarked),-74%
11,O=C(CSc1nnc(C2COc3ccccc3O2)o1)N1CCCc2ccccc21 (centres unmarked),11%
12,COc1ccc(OC)c(CCNC(=O)c2ccc(CS(=O)Cc3cccc(Cl)c3)o2)c1 (centres unmarked),-4.05%
13,CN1c2ccccc2C(C)(C)C12CC(c1cccc(S(=O)(=O)N3CCCC3)c1)=NO2 (centres unmarked),9.46%
14,O=C(COC(=O)c1ccc(Cl)nc1)NCCNC(=O)COC(=O)c1ccc(Cl)nc1,6.44%
15,Cc1cccc(-c2n[nH]c(=S)n2/N=C/c2ccc(C)s2)c1,3.68%
16,C[C@@H](O)CC#Cc1ccc2oc(=O)c(-n3cc(-c4ccsc4)nn3)cc2c1,12.4%
17,Cn1c(-c2ccc3c(c2)OCO3)c(C(=O)O)c(=O)c2ccccc21,9.83%
18,CCOC(=O)c1c(NC(=S)NCC2CCCO2)sc(C)c1C (centres unmarked),17.4%
19,O=C(CN1C(=O)/C(=C/c2ccco2)SC1=S)Nc1ccc(O)c(C(=O)O)c1,13.1%

row,SMILES,"hERG current change (%, negative = inhibition) at 1uM"
1,NS(=O)(=O)c1ccc(NC(=O)CN2CCCC2)cc1,7.23%
2,O=C(NC12CC3CC(CC(C3)C1)C2)c1ccc(-c2ccccc2Cl)o1,3.59%
3,Cc1c(NC(=O)c2cc(-c3cccs3)on2)c(=O)n(-c2ccccc2)n1C,-8.63%
4,CC(C)OP(=O)(OC(C)C)/C(C=O)=N\Nc1ccc([N+](=O)[O-])cc1,-17.6%
5,Cc1ccc(N2C(=O)C3C(C2=O)N2C(c4cccs4)C4C(=O)N(c5ccc(C)cc5)C(=O)C4N2C3c2cccs2)cc1 (centres unmarked),6.33%
6,CCN(C(=O)c1cc(Cl)ccc1OC)C1CCCCC1,-11.7%
7,C/C(=N\NC(=O)c1ccc2c(c1)OCO2)c1ccc(NC(=O)CCCC(=O)O)cc1,16%
8,Cc1cccc(OCC(=O)Nc2sc3c(c2C#N)CCC3)c1,12.8%
9,CC(=O)N/C(=C\c1ccc(Br)s1)C(=O)O,14.9%
10,C(=C\c1nnc2c3ccccc3ncn12)/c1ccccc1,11.4%
11,CC(C)CN(C(=O)COC(=O)CNC(=O)c1ccccc1)c1c(N)n(Cc2ccccc2)c(=O)[nH]c1=O,6.99%
12,Cc1[nH]c2ccccc2c1-c1nc(-c2ccc(Cl)cc2)nnc1-c1ccccc1,1.68%
13,CN1CCN(Cc2cc3c(cc2[N+](=O)[O-])OCO3)CC1,6.29%
14,Cc1cc(C(=O)N2CCc3ccccc32)c2cc(F)ccc2n1,5.46%
15,CCc1nc(NCc2ccccc2)c(C#N)c2c1CCCC2,11.9%
16,O=C1N/C(=N\N=C\c2ccco2)SC1Cc1ccc(F)cc1 (centres unmarked),9.49%
17,CN(C)CCCCOc1ccc(F)cc1.O=C(O)C(=O)O,-5.8%
18,O=C(COC(=O)c1ccc(Cl)cc1[N+](=O)[O-])NC(=O)c1ccccc1,9.37%
19,CCN1CCCC1CNC(=O)C1CCCN(S(=O)(=O)c2cccc3nsnc23)C1 (centres unmarked),7.09%

row,SMILES,"hERG current change (%, negative = inhibition) at 1uM"
1,Cc1nnc(Sc2nc3c(c(=O)[nH]c(=O)n3C)n2Cc2ccccc2)s1,0.495%
2,CCNc1nc(Cl)nc(NC(C)C)n1,12.2%
3,CCOc1ccc(CNc2ccc(N3CCN(Cc4ccccc4)CC3)cc2)cc1,12%
4,Cc1cc(C(=O)Nc2sc(C)c(-c3ccc(F)cc3)c2C(N)=O)no1,19.5%
5,Cc1ccc(S(=O)(=O)N2CCN(C(=O)Cn3c(=O)oc4ccccc43)CC2)c(C)c1,6.44%
6,Cn1c(C(N)=O)cnc1Sc1ncc(C(F)(F)F)cc1Cl,15.1%
7,CCn1c(SCC(=O)O)nnc1-c1ccc2[nH]c(C)c(C)c2c1,-3.32%
8,O=C(CSc1cn(CCNC(=O)c2ccccc2)c2ccccc12)NCc1ccco1,3.25%
9,COC(=O)c1c(S(C)(=O)=O)nc(-c2ccccc2)[nH]c1=O,6.36%
10,Cc1ccccc1C(=O)Nc1ccc(S(=O)(=O)Nc2onc(C)c2C)cc1,-0.673%
11,COc1cc2c(cc1OC)CN(C(=O)c1ccc(S(=O)(=O)N3CCCCCC3)cc1)CC2,15.1%
12,Cc1nn(-c2ccccc2)c2sc(C(=O)OC3CCOC3=O)cc12 (centres unmarked),-8.01%
13,CC12CCC3c4ccc(O)cc4CCC3C1CCC2=O (centres unmarked),4%
14,O=C(COC(=O)Cc1ccsc1)Nc1ccc(Br)cc1,9.81%
15,Cc1c(C(=O)NCc2cccs2)oc2ccc(Br)cc12,17.5%
16,COc1ccc(N2CCN(C(=O)CSc3nnc4c(C)cc5c(C)cc(C)cc5n34)CC2)cc1,5.3%
17,COc1cc(C)ccc1S(=O)(=O)N1CCN(C23CC4CC(CC(C4)C2)C3)CC1,4.7%
18,COc1ccc(C(NC(=O)C(C)C)c2c(O)ccc3ccccc23)cc1 (centres unmarked),16%
